{"source": "paper PMC12136788", "binders": {"B1": {"name": "chr2:10440579:10440691:-|3pUTR|ENSG00000115758|unk|FALSE|unique (ssRNA)", "RNA": "GGGAGUUCUACAGUCCGACGAUCUAACUGCAAGUUUAGCUUGAAUUAAGGGAUUUGGGGGGACCAUGUAACUUAAUUACUGCUAGUUUUGAAAUGUCUUUGUAAGAGUAGGGUCGCCAUGAUGCAGCCAUAUGGAAGACUAGGCAACAGAGGAUUGAGCAUCA"}, "B2": {"name": "chr2:88557131:88557241:-|3pUTR|ENSG00000172071|msi1|total|mutant (ssRNA)", "RNA": "GGGAGUUCUACAGUCCGACGAUCGAGGACAAGCCGCACAAACUGUAUAACGGUUUAUGUCCGCCGUUUUACCGUCCUAUUUGCCGCAUUCAACCGCUUUAUUCCUCCGAUGGUUCCCGGGUGGGUUUACAGCUUUUUGUACUUCAACAGAGGAUUGAGCAUCA"}, "B3": {"name": "chr12:18688087:18688218:-|CDS|ENSG00000139151|control|control|control (ssRNA)", "RNA": "GGGAGUUCUACAGUCCGACGAUCUGGUAUCCAGUUGCCUCUUACUCAUUCAUCAUCUAACAAAGGUGAUUCAUUAGUAAUUAUAGAAGUUUUUGGUGUUCCAAAUGAUCAAAUGAAGCAGCAGACUCGUGUAAUUAAAAAAAACAACAGAGGAUUGAGCAUCA"}, "B4": {"name": "chr10:78022286:78022401:-|CDS|ENSG00000148606|unk|FALSE|unique (ssRNA)", "RNA": "GGGAGUUCUACAGUCCGACGAUCAACAUAGUAUCUCCAUUUCUGCCUUUCUUCGUUUCCAUAGGAAAACUUGAAUCCCUUAGUAGUUCUGAAUUUAUUUAAACGAAUCCCAGCUGAAGAUGUUCCUCUACUUCUGAUGAACCCCAACAGAGGAUUGAGCAUCA"}, "B5": {"name": "chr2:165880514:165880799:-|CDS|ENSG00000123607|control|control|control (ssRNA)", "RNA": "GGGAGUUCUACAGUCCGACGAUCGAUGGCAUGGAAAUAUAGCAAUCGGACAAAUCCGGCAGUAGGUGAGUUUGGCAAUCACCUAGAUUUUUCACAGAAAAAUUAUGUUGUAUUUAUUAAUUUUCAUUUAAAUGCAUUUGAUUUCAACAGAGGAUUGAGCAUCA"}, "B6": {"name": "ENSG00000070961:be:win_1701|CDS|ENSG00000070961|bound_else_gene|NA|bound_elsewhere_windowed (ssRNA)", "RNA": "GGGAGUUCUACAGUCCGACGAUCACCAGAAGAAGCACUGUACAAAGUCUACACCUUCAAUUCUGUUAGGAAGUCCAUGAGUACUGUCCUGAAAAAUUCAGAUGGAAGUUAUCGAAUAUUCAGCAAGGGUGCAUCUGAGAUAAUCAACAGAGGAUUGAGCAUCA"}, "B7": {"name": "chr21:25881051:25881209:-|3pUTR|ENSG00000142192|msi1_unk|total|mutant (ssRNA)", "RNA": "GGGAGUUCUACAGUCCGACGAUCUUUUUUUUCCAUGACUGCAUUUUACUGUACAGAUUGCUGCUUCUGCUAUAUUUGUGAUACCGGAAUUAAGAGGAUACACACGUUUGUUUCUUCGUGCCUGUUUUAUGUGCACACAUCCGGCAACAGAGGAUUGAGCAUCA"}, "B8": {"name": "chr22:43879677:43880794:-|three_prime_utr|ENSG00000100341|control|control|control (ssRNA)", "RNA": "GGGAGUUCUACAGUCCGACGAUCGAGAAAGGAGGACAGCCACAGAGACACAUGUCUUACUUUCAGAAUUUCCACGGGGGGACUAGGAGGGCAGCAUUGCUGGGGAGAGGGGCUCCUGUUCUGCCGUGGAGCUGCCCACGGAGCCAACAGAGGAUUGAGCAUCA"}, "B9": {"name": "chr8:23842113:23842214:-|3pUTR|ENSG00000159167|msi1|total|mutant (ssRNA)", "RNA": "GGGAGUUCUACAGUCCGACGAUCACUUCCGACAUUUUUGUGCCAUUAUAUUUGCAUUAUGUAUUUAUAAUUUAAAUGAUAUUCCGGUUUUUGGCUGAGUACUGGAAUAAACAGUGAGCAUAUCUGGUAUAUGUCAUUAUUUAUCAACAGAGGAUUGAGCAUCA"}, "B10": {"name": "chr9:15171111:15171212:-|3pUTR|ENSG00000155158|unk|FALSE|unique (ssRNA)", "RNA": "GGGAGUUCUACAGUCCGACGAUCCUGCUUUAAAUGAUAUGUAAAAUAUCAAUAAUUUUUACACUUAAGAUGUUGGUAAGACCUAGUUUUCUAAUCUCUCUAGCACUGUGAUGUCUCCUUGUAGAUAAUCUGGACCUUGCUUAGCAACAGAGGAUUGAGCAUCA"}, "B11": {"name": "chr12:107752058:107752159:-|CDS|ENSG00000110851|unk|FALSE|unique (ssRNA)", "RNA": "GGGAGUUCUACAGUCCGACGAUCUAACUCUAUAAAUGUUGAUGGUAAUACAGCAUUAUCUAUCACCAAUAACCCUUCAGCACUAGAUCCCUAUCAGUCCAAUGGAAAUGUUGGAUUAGAACCAGGCAUUGUUUCAAUAGACUCCAACAGAGGAUUGAGCAUCA"}, "B12": {"name": "chr5:132541444:132541810:-|three_prime_utr|ENSG00000113525|control|control|control (ssRNA)", "RNA": "GGGAGUUCUACAGUCCGACGAUCAAAUUGAUAUACUUUUUUCUUAUUUAACUUAACAUUCUGUAAAAUGUCUGUUAACUUAAUAGUAUUUAUGAAAUGGUUAAGAAUUUGGUAAAUUAGUAUUUAUUUAAUGUUAUGUUGUGUCAACAGAGGAUUGAGCAUCA"}, "B13": {"name": "chr8:86558718:86558819:+|3pUTR|ENSG00000085719|unk|FALSE|unique (ssRNA)", "RNA": "GGGAGUUCUACAGUCCGACGAUCCUGUUGUUGUUUUUGUUUACUUUCAUAUGAUGAAAAUGCUGUGUUUAAGUGUUUGUCAAUAGGAAGAAUGGAAAACUGUUGGGAUGAUGUGGUUUGCAGGUUGCUGUGCCUGAUUCACAGCAACAGAGGAUUGAGCAUCA"}, "B14": {"name": "chr14:75059847:75060235:-|three_prime_utr|ENSG00000119640|control|control|control (ssRNA)", "RNA": "GGGAGUUCUACAGUCCGACGAUCAACCACAUUAAAAAAAUAAAAAGGAUAACUGGAAAAUCCCAAAAUAUUUGGAAACCAUAUAGCACACUUACUUCUAAAAUUGUGGUAGAAUACAUAUAACAUAGAAAUUAUUGUUCUAACCAACAGAGGAUUGAGCAUCA"}, "B15": {"name": "chr7:56101660:56101848:-|3pUTR|ENSG00000106153|msi1|total|mutant (ssRNA)", "RNA": "GGGAGUUCUACAGUCCGACGAUCUGGAGAGAUGGAAAAUCAGCUCUCAUAACUAAGUUAAUUCCGUAUAAAAACCGAAUUGACCGUGAGGGUAUAAAGUGUAACCAUCAGUUAAACCUCUCCUGUCAUUCCUGGCUUCCUUGCCAACAGAGGAUUGAGCAUCA"}, "B16": {"name": "chr14:100882551:100882663:-|CDS|ENSG00000254656|unk|total|mutant (ssRNA)", "RNA": "GGGAGUUCUACAGUCCGACGAUCGCUCUCCCCAGACCCUAUCAUACCUCAGAACGUGAUUCACUUCAUCCUAAAGGACAUGCCCGGGUUCUUUGUGCUUUCUUAUGGCCAGGAAGUCCUGAUCUACUCAAUGAGUCAGGAGGACAACAGAGGAUUGAGCAUCA"}, "B17": {"name": "chr19:1826877:1828631:-|CDS|ENSG00000079313|control|control|control (ssRNA)", "RNA": "GGGAGUUCUACAGUCCGACGAUCCGACAGGAAGAGCACCAAGGCCCCGUCGGGGAAGCUAGUGGAGCGGAAAGCCCGCUCACUAGACGAGGGCGCCUCCCAGGACGCCCCCAAGCUGAAGAAGCGGGCCCUGAGCCACGCCGACAACAGAGGAUUGAGCAUCA"}, "B18": {"name": "chr15:49644301:49644402:+|3pUTR|ENSG00000104047|msi1|total|mutant (ssRNA)", "RNA": "GGGAGUUCUACAGUCCGACGAUCAAUAAUUGAAGCCUACCUGCCCGUGGCCAUCUCUGCUGCCAGGUGAAAAGAGCCUGACUCCGAAUGAAGUCAGCGAAGGAAAGCAGAGUGGAGAGAAAAAGAGAGACUGAGUCCUGAUGACAACAGAGGAUUGAGCAUCA"}, "B19": {"name": "chr11:72288215:72288316:-|3pUTR|ENSG00000162129|unk|total|mutant (ssRNA)", "RNA": "GGGAGUUCUACAGUCCGACGAUCACCCAGCUAAUUUUUUUUGUAUUUUCCGUAAAGACGGGGUUUCACCAUGUUUGCCAGGCCCGUCUCAAACUCCUGGUCUCAAGUGAUCCACCCACCUUGGCCUCCCAGAGUGCUGAGAUUCAACAGAGGAUUGAGCAUCA"}, "B20": {"name": "ENSG00000196526:stop:overlap|stop_codon|ENSG00000196526|stop_codon|NA|stop_codon (ssRNA)", "RNA": "GGGAGUUCUACAGUCCGACGAUCCCCCCUGCCGAGGGCAUGUGCUGCGGAAGGCCAAGGAAUGGGAAUUGAAGAACGGGACCUAGGGGACAGCAGCACCACUCCAGCCUCAGAGACUGCACACCCCCUUGCCUGUAUCCUCAUCAACAGAGGAUUGAGCAUCA"}, "B21": {"name": "chr5:134606522:134606623:-|3pUTR|ENSG00000152700|msi1_unk|FALSE|overlapping (ssRNA)", "RNA": "GGGAGUUCUACAGUCCGACGAUCAACUAUAAACCAUAUUUAAAAGCUCAUCAUGUUAAAUUUUUUAUGUACUUUUCUGGAACUAGUUUUUAAAUUUUAGAUUAUAUGUCCACCUAUCUUAAGUGUACAGUUAAUAAUUAGCUUCAACAGAGGAUUGAGCAUCA"}, "B22": {"name": "chr17:30194318:30198530:-|three_prime_utr|ENSG00000108576|control|control|control (ssRNA)", "RNA": "GGGAGUUCUACAGUCCGACGAUCCCAGACUCAAGGCCUCCAGCCACUUAUUUCCAUGGAUUCCCCUGGACAUAUUCCCAUGGUAGACUGUGACACAGCUGAGCUGGCCUAUUUUGGACGUGUGAGGAUGUGGAUGGAGGUGAUCAACAGAGGAUUGAGCAUCA"}}, "note": "Some of the results follow.", "data": [{"target": "T1, UNK ZnF1-6 (called full-length) (human, UniProt Q9C0B0 30-357)", "T1 sequence": "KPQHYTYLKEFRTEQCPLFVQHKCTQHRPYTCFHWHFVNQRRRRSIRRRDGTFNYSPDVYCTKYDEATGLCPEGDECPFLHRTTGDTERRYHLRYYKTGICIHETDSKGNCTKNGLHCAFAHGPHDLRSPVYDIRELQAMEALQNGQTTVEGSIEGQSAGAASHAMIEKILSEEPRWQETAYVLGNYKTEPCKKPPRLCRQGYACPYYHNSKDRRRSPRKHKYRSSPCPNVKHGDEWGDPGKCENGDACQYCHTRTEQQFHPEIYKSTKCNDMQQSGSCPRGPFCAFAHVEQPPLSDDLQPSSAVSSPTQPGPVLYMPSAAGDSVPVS", "test": "nsRBNS (natural sequence RNA bind-n-seq); RBNS binding buffer (assumed for nsRBNS): 25 mM Tris pH 7.5, 150 mM KCl, 3 mM MgCl2, 0.01% Triton X-100, 500 ug/ml BSA, 20 U/ml SUPERase-In, 4 C; UNK is unkempt and MSI1 is Musashi-1; names of the RNAs are library labels; protein concentration not given here; high values mean tight binding", "units": {"binding signal": "enrichment R"}, "values": [{"binder": "B1", "binding signal": 1.12}, {"binder": "B2", "binding signal": 0.471}, {"binder": "B3", "binding signal": 0.777}, {"binder": "B4", "binding signal": 4.02}, {"binder": "B5", "binding signal": 0.541}, {"binder": "B6", "binding signal": 0.292}, {"binder": "B7", "binding signal": 0.394}, {"binder": "B8", "binding signal": 1.05}, {"binder": "B9", "binding signal": 0.575}, {"binder": "B10", "binding signal": 1.17}, {"binder": "B11", "binding signal": 0.391}, {"binder": "B12", "binding signal": 7.43}, {"binder": "B13", "binding signal": 0.424}, {"binder": "B14", "binding signal": 2.02}, {"binder": "B15", "binding signal": 0.253}, {"binder": "B16", "binding signal": 0.569}, {"binder": "B17", "binding signal": 0.735}, {"binder": "B18", "binding signal": 0.574}, {"binder": "B19", "binding signal": 2.56}, {"binder": "B20", "binding signal": 2.74}, {"binder": "B21", "binding signal": 25.7}, {"binder": "B22", "binding signal": 0.707}]}]}
